Experimental data published in the supplement of paper PMC4604168 (melanoma cell lines).
The list shows a part of the results. Many values rest on one well or one pass, so single values are uncertain.

system: A101D; assay: cell count relative to DMSO control; melanoma cells; higher = more viable cells; conditions: library dose: standard library concentration; 72 h
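Also: cells treated in 1,536-well plates, then fixed and DAPI-stained, with nuclei counted from automated high-throughput microscope images.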

SMILES | cell count
C[C@]1(O)C[C@@H](c2nc(-c3ccc4ccc(-c5ccccc5)nc4c3)c3c(N)nccn32)C1 + NC(=O)Nc1cc(-c2cccc(F)c2)sc1C(=O)N[C@H]1CCCNC1 [AZD7762] (first compound 2 µM, partner dose 0.1 µM) | 52.9%
COc1cc([C@@H]2c3cc4c(cc3[C@@H](O[C@@H]3O[C@@H]5CO[C@@H](C)O[C@H]5[C@H](O)[C@H]3O)[C@H]3COC(=O)[C@H]23)OCO4)cc(OC)c1O [etoposide] + OCc1c[nH]c2ccccc12 [Indole-3-carbinol] (first compound 0.1 µM, partner dose 4 µM) | 98.9%
Cn1cnc2c(F)c(Nc3ccc(Br)cc3Cl)c(C(=O)NOCCO)cc21 [selumetinib] + COc1cc2c(Oc3ccc4[nH]c(C)cc4c3F)ncnc2cc1OCCCN1CCCC1 [cediranib] (first compound 0.075 µM, partner dose 2 µM) | 65.2%
CCN(CC)CCNC(=O)c1c(C)[nH]c(/C=C2\C(=O)Nc3ccc(F)cc32)c1C [sunitinib] + CS(=O)(=O)CCNCc1ccc(-c2ccc3ncnc(Nc4ccc(OCc5cccc(F)c5)c(Cl)c4)c3c2)o1 [lapatinib] (first compound 2 µM, partner dose 4 µM) | 37.4%
C[C@]1(O)C[C@@H](c2nc(-c3ccc4ccc(-c5ccccc5)nc4c3)c3c(N)nccn32)C1 + C=C(c1ccc(C(=O)O)cc1)c1cc2c(cc1C)C(C)(C)CCC2(C)C [Bexarotene] (first compound 2 µM, partner dose 10 µM) | 110%
Cn1cnc2c(F)c(Nc3ccc(Br)cc3Cl)c(C(=O)NOCCO)cc21 [selumetinib] + CNC(=O)c1cc(Oc2ccc(NC(=O)Nc3ccc(Cl)c(C(F)(F)F)c3)cc2)ccn1 [sorafenib] (first compound 0.075 µM, partner dose 2 µM) | 70%
COc1cc([C@@H]2c3cc4c(cc3[C@@H](O[C@@H]3O[C@@H]5CO[C@@H](C)O[C@H]5[C@H](O)[C@H]3O)[C@H]3COC(=O)[C@H]23)OCO4)cc(OC)c1O [etoposide] + COc1cc(Nc2ncc(F)c(Nc3ccc4c(n3)NC(=O)C(C)(C)O4)n2)cc(OC)c1OC [Tamatinib] (first compound 0.1 µM, partner dose 2 µM) | 52.5%
C[C@]1(O)C[C@@H](c2nc(-c3ccc4ccc(-c5ccccc5)nc4c3)c3c(N)nccn32)C1 + O=C(CCCCCCC(=O)Nc1ccccc1)NO [vorinostat] (first compound 2 µM, partner dose 0.4 µM) | 77.6%
CCN(CC)CCNC(=O)c1c(C)[nH]c(/C=C2\C(=O)Nc3ccc(F)cc32)c1C [sunitinib] + CN(C)S(=O)(=O)c1ccc2c(c1)/C(=C/c1cc3c([nH]1)CCCC3)C(=O)N2 [SU6656] (first compound 2 µM, partner dose 2 µM) | 59.2%
Cn1cnc2c(F)c(Nc3ccc(Br)cc3Cl)c(C(=O)NOCCO)cc21 [selumetinib] + Cc1cc(N2CCOCC2)cc2[nH]c(-c3c(NC[C@@H](O)c4cccc(Cl)c4)cc[nH]c3=O)nc12 [BMS536924] (first compound 0.075 µM, partner dose 1 µM) | 76.2%
COc1cc([C@@H]2c3cc4c(cc3[C@@H](O[C@@H]3O[C@@H]5CO[C@@H](C)O[C@H]5[C@H](O)[C@H]3O)[C@H]3COC(=O)[C@H]23)OCO4)cc(OC)c1O [etoposide] + O=C(/C=C/c1cccnc1)NCCCCC1CCN(C(=O)c2ccccc2)CC1 [FK866] (first compound 0.1 µM, partner dose 0.05 µM) | 84.1%
Cn1cnc2c(F)c(Nc3ccc(Br)cc3Cl)c(C(=O)NOCCO)cc21 [selumetinib] + Cc1cc(Nc2cc(N3CCN(C)CC3)nc(/C=C/c3ccccc3)n2)n[nH]1 [ENMD2076] (first compound 0.075 µM, partner dose 0.2 µM) | 68.3%
COc1cc([C@@H]2c3cc4c(cc3[C@@H](O[C@@H]3O[C@@H]5CO[C@@H](C)O[C@H]5[C@H](O)[C@H]3O)[C@H]3COC(=O)[C@H]23)OCO4)cc(OC)c1O [etoposide] + O=c1[nH]nc(Sc2ncc([N+](=O)[O-])s2)n1-c1ccc2c(c1)OCCO2 [BI78D3] (first compound 0.1 µM, partner dose 1 µM) | 69.4%
